Data reported in the supplement of paper PMC10126150.
Sequences with one replicate were seen in a single cluster, so their values are uncertain.

System: ATP
Test: switch fluorescence ratio, 500 uM ATP over buffer (Cy3 cluster intensity, sum of 5 cycles each) (fold (ratio)); higher = stronger signal-on switching upon ATP binding; sequences stand for … in TCGTCGGCAGCGTCAGATGTGTATAAGAGACAGTTTTTTTTTTTTTTTTTTTTTTTTT…TC
Conditions: aptamer strand: ATP DNA aptamer (quencher-CACCTGGGGGAGTATTGCGGAGGAAGG + anchor), 100 nM annealed; ATP concentration: 500 uM; one replicate
In short: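 Imaging in selection buffer was followed by imaging after 15 min with 500 uM ATP at 22 °C, for Cy3-labelled switching-strand clusters annealed to 100 nM quencher-labelled ATP aptamer on a modified Illumina MiSeq flow-cell. Five of these buffer/ATP cycles ran, separated by NaOH stripping and re-annealing. The fluorescence ratio per cluster is summed target-cycle over summed buffer-cycle Cy3 intensity, averaged per switch-domain sequence; clusters outside 100-1000 RFU were removed.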
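Note: ATP exposure 15 min at 22 °C before imaging.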

| Sequence | switch fluorescence ratio |
| --- | --- |
| TAGCGGCCA | 1 |
| TCTTACTTTC | 1.04 |
| TCGTCCCCGC | 2.21 |
| ATGAGGAAAG | 1.04 |
| GGTAGGCTGG | 0.992 |
| CGCAGATGGA | 1.01 |
| GGTACAAGCG | 0.981 |
| TACGCATTCG | 1.12 |
| ACATGCTTTC | 1.06 |
| TGAATTGTGT | 0.953 |
| TCGGTCAAGT | 1.02 |
| AGCGCGATCT | 0.993 |
| GATTATATGA | 0.982 |
| AGGGCTGCTT | 1.07 |
| CGCAGAGGGC | 1.08 |
| CAACTCTGAG | 0.996 |
| GCGTGAGTCT | 0.888 |
| GCTAGTTGAA | 1.01 |
| CCGCTGGTTT | 1.41 |
| AACTCTATTG | 0.996 |
| GCTGCGCTGA | 1.2 |
| GCAAGCGAAC | 1.75 |
| AAGGGTCAAC | 0.989 |

| Sequence | switch fluorescence ratio |
| --- | --- |
| CGTCGGATTC | 1.03 |
| AAAGCTTAAT | 0.974 |
| GTTCGATGTT | 1 |
| CGAGATCCTT | 1.03 |
| TTGAAAGCCC | 1.02 |
| TATGTACTTT | 1.01 |
| CTGGGGACCG | 1 |
| CAATTGAGTC | 1.06 |
| TCATTCTAC | 1.05 |
| CTGCTTGT | 1.02 |
| AGCCGAAGAG | 1.01 |
| TGTGATGGAC | 1.27 |
| TAATCCCACG | 1.05 |
| AATCGCAAAG | 1.01 |
| TGAAGGGAGT | 0.933 |
| TGTGTAGGGC | 1.05 |
| ATGTTACAGC | 1.02 |
| CTGCTTTAA | 1.02 |
| CAAACAAGTG | 0.988 |
| CGCCAATCAA | 1.1 |
| TCCTTCGTTT | 2 |
| CCAAATACGA | 2.22 |
| CTCGAACGTG | 0.989 |

| Sequence | switch fluorescence ratio |
| --- | --- |
| GAAGACTCGT | 0.954 |
| GACCGAAGTA | 1 |
| ACCGTGTGGG | 0.997 |
| CGTGAAGTAT | 1 |
| CTCAATAACC | 1.04 |
| ATCCTGCTAT | 1.05 |
| CCACGGCAAG | 2.4 |
| TACATACGT | 1.34 |
| GTAAGTCACT | 1.08 |
| CAGGAGTTT | 1 |
| TGTCGGCCCT | 1.03 |
| GTCATTAGGG | 0.957 |
| GGTTATGGGT | 0.986 |
| TAGTGGATCA | 0.992 |
| AGGATCAAGT | 0.998 |
| AAAGGCCATT | 0.97 |
| GCGCTTTGTA | 1.03 |
| CCTTGCCCC | 1.17 |
| AGACTGACAC | 1.23 |
| AAGCGTTTGT | 0.976 |
| AGATTGTCCG | 1.02 |
| CATTATTATC | 0.974 |
| CAAATAGGCG | 0.983 |

| Sequence | switch fluorescence ratio |
| --- | --- |
| CTCAATTTGT | 1.03 |
| GTTCCAAACT | 1.05 |
| CACTAATATA | 0.984 |
| CTAGAGATCT | 0.969 |
| TCTGCTTGCT | 1.03 |
| TAGTGAGGTA | 1.02 |
| TTGGGTAGAG | 1.02 |
| CGGTGGAGG | 1.01 |
| AAGTGCACA | 1.05 |
| CAGGTAGTTA | 0.97 |
| TGCGGATCGG | 0.981 |
| CACTACGATG | 1.03 |
| ACTGGTCGCT | 1.03 |
| GTCGTGGTAG | 1.04 |
| TGGAAGGCGA | 1 |
| AGTATCTCGC | 0.99 |
| ACCGAACTGG | 1.12 |
| AGAACAGGGC | 1.05 |
| AGGTCAAATA | 1 |
| AAGATAGTTA | 0.953 |
| TAATCCGGGA | 1.03 |
| CATTATAATA | 1 |
| ATCGAGAATG | 1 |

| Sequence | switch fluorescence ratio |
| --- | --- |
| TCGGGGCTGC | 0.967 |
| GATGACAGTA | 1.02 |
| CTGGGGAATG | 1.01 |
| CAGGGTAAGC | 1.03 |
| ACTCGTGTTG | 0.983 |
| TGCTTCAGAG | 1.05 |
| ATAAGGAGTC | 0.983 |
| AGTTGAGGCT | 0.966 |
| GACACTAT | 1.35 |
| CTAGATTAAA | 0.97 |
| GCCATGCACC | 1.05 |
| ATTTAGGAAC | 0.988 |
| CCCTGGAGAA | 0.99 |
| TCACAATGTA | 0.993 |
| CTATGTCTTG | 0.976 |
| GGGGTCAAAA | 0.999 |
| CGGAATTTTA | 1.05 |
| CTGGTATAAC | 1.03 |
| TTACTTCCT | 1.04 |
| ATGTGAATT | 0.978 |
| TGTAGACGTG | 1.01 |
| CGCGCATCCG | 1.05 |
| AGCCTTGAAC | 1.01 |

| Sequence | switch fluorescence ratio |
| --- | --- |
| ATTCGAGGTG | 0.967 |
| TCCATAGCGT | 2.08 |
| GCCGGTATGG | 0.963 |
| CCCGTTGATG | 1.03 |
| TGTGTATCGC | 1.02 |
| AATTTGCGAG | 0.991 |
| ATAGGGAGGA | 0.964 |
| AACTAAAAAT | 0.954 |
| CGGAATCAAT | 1.05 |
| TATAGTAATG | 0.985 |
| AAAGTATATC | 0.978 |
| ATGTTTCTAG | 0.954 |
| TAGATCTGTG | 0.966 |
| GGGCTATGCG | 1.08 |
| AATTCTGTCG | 0.963 |
| CGCGGGCGGT | 1.03 |
| ATTAGGTTGC | 0.988 |
| CCTTATCCAT | 0.998 |
| GGCCTTTAAC | 1 |
| CGCGTAAATA | 0.998 |
| TGATGGGAAT | 1.01 |
| AAATATTG | 1.03 |
| TTATGGTATG | 0.999 |

| Sequence | switch fluorescence ratio |
| --- | --- |
| TCGCCGATGT | 1.05 |
| GACTGATTCG | 0.985 |
| GAAGGCCGA | 0.937 |
| TTAAAAACAA | 1.02 |
| ACCGGAGCCC | 2.44 |
| CAATGCAGTC | 1.06 |
| GAGCTGCTGG | 0.982 |
| GTGCTACGGG | 1.01 |
| TCTGGATGAA | 1.01 |
| AGAATATCAC | 1.02 |
| TAGGGTTAGT | 0.98 |
| GTTGCAGCAA | 1.06 |
| ACGAAGTTGG | 1 |
| AGATCAAGAT | 1.02 |
| AAAGTCACGC | 1.23 |
| GTTGGCGTCG | 0.907 |
| GGGGTCACAC | 0.992 |
| TCGGTCGGTT | 1 |
| TCTGCTCGGT | 1.02 |
